Results are given in words; binding and its absence hold for the method and conditions named. Binding seen in cells or lysates may run through a third protein. Some entries that bind do so weakly or less than the wild type.
T1: Mcm4 (subunit of the Mcm DNA helicase complex) (mouse (endogenous in C2C12)) (UniProt P49717)
T1 sequence: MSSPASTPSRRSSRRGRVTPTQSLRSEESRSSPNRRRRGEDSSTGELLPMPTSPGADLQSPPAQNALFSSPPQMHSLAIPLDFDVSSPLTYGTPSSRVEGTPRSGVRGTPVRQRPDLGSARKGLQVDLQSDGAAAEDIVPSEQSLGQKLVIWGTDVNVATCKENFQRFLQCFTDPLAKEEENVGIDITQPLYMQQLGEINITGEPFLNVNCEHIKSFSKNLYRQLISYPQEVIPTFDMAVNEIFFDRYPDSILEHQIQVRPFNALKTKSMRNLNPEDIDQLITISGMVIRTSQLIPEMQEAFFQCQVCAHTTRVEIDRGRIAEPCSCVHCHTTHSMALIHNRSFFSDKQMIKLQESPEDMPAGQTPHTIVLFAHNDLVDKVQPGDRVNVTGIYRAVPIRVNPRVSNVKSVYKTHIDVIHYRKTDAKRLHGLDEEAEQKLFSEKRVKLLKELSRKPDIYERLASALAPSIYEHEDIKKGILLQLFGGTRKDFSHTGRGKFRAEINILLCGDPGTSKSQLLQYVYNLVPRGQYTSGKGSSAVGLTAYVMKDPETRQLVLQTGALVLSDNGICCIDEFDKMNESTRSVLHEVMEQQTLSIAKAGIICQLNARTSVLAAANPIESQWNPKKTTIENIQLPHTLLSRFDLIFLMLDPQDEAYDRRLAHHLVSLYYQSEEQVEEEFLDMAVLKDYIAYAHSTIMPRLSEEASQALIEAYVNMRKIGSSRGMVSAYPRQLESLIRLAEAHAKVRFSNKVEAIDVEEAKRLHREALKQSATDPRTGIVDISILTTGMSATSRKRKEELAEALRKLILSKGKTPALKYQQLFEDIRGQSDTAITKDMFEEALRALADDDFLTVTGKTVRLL

Chains of the proteins cited; added tags and fusions are not shown. Lines headed by an entry give the natural chain unless they say otherwise; changes in a name come on top. A line that says so, or that is headed by a name, gives the form on record, which may keep a tag or linker.
UniProt Q8CCK0: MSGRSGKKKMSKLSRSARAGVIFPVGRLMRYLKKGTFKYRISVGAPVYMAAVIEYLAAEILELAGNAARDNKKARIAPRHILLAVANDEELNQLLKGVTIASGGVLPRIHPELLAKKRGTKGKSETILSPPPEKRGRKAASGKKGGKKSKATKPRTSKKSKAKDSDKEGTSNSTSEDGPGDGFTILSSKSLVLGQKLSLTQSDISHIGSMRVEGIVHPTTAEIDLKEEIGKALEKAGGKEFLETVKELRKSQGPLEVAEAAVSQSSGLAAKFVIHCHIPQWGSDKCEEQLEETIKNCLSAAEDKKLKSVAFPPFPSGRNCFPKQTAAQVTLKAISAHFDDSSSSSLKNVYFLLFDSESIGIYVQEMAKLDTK
macroH2A1.2-GFP (Q9QZQ8-1, form named): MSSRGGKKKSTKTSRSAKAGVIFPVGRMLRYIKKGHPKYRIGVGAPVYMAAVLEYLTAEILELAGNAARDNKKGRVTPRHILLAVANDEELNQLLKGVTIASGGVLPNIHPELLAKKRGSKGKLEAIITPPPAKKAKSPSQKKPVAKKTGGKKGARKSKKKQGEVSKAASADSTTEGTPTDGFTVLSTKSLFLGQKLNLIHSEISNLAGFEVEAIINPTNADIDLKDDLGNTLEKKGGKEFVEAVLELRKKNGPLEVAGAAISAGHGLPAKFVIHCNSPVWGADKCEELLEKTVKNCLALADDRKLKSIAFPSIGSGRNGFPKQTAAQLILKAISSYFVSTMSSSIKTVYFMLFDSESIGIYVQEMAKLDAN
UniProt P97310: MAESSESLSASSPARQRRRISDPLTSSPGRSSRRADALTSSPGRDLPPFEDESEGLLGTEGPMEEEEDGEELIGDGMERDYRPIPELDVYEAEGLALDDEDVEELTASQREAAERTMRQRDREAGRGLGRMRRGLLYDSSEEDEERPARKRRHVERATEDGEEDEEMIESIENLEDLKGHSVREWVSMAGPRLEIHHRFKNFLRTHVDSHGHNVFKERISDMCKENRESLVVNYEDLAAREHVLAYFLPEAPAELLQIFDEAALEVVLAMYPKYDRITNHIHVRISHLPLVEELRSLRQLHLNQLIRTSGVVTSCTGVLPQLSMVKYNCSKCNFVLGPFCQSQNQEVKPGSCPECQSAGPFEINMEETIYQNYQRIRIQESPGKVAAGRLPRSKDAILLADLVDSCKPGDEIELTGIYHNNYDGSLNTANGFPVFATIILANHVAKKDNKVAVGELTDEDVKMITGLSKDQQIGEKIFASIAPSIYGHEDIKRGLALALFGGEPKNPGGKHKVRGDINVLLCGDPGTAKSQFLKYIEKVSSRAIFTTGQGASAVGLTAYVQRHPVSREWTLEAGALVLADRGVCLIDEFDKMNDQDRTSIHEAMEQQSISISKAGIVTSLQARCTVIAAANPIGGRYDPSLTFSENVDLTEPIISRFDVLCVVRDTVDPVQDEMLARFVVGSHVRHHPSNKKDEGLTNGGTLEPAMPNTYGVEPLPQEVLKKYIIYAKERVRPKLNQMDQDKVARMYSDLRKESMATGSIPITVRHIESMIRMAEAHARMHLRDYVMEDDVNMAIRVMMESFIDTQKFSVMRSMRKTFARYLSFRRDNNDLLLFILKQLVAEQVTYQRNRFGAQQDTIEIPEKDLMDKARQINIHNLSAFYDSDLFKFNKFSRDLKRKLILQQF

B1: Mcm4 (subunit of the Mcm DNA helicase complex) (protein, UniProt P49717 1-862)
chain: T1 sequence
B2: Mcm5 (subunit of the Mcm DNA helicase complex) (protein, UniProt P49718 1-734)
chain: MSGFDDPGIFYSDSFGGDPGAEEGQARKSQLQRRFKEFLRQYRVGTDRTGFTFKYRDELKRHYNLGEYWIEVEMEDLASFDEELADHLHKQPAEHLQLLEEAAKEVADEVTRPRPAGDELLQDIQVMLKSDASPSSIRILKSDMMSHLVKIPGIIISASAVRAKATRISIQCRSCHNTLTNIAMRPGLEGYALPRKCNMDQAGRPKCPLDPYFIMPDKCKCVDFQTLKLQELPDAVPHGEMPRHMQLYCDRYLCDKVVPGNRVTIMGIYSIKKFGLNPSKGRDRVGVGIRSSYIRVLGIQVDTDGSGRSFAGSVSPQEEEEFRRLAALPNIYELISKSISPSIFGGMDMKKAIACLLFGGSRKRLPDGLTRRGDINLLMLGDPGTAKSQLLKFVEKCSPIGVYTSGKGSSAAGLTASVIRDPSSRNFIMEGGAMVLADGGVVCIDEFDKMREDDRVAIHEAMEQQTISIAKAGITTTLNSRCSVLAAANSVFGRWDETKGEDNIDFMPTILSRFDMIFIVKDEHNEERDMMLAKHVMTLHVSALTQTQAVEGEIDLAKMKKFIAYCRARCGPRLSAEAAEKLKNRYIIMRSGARQHERDSDRRSSIPITVRQLEAIVRIAEALSKMKLQPFATEADVEEALRLFQVSTLDAALSGNLSGVEGFTTQEDQEMLSRIEKQLKRRFAIGSQVSEHSIVQDFTKQKYPEHAIRKVLQLMLRRGEIQHRMQRKVLYRLK
B3: Mcm3 (subunit of the Mcm DNA helicase complex) (protein, UniProt P25206 1-812)
chain: MAGTVVLDDVELREAQRDYLDFLDDEEDQGIYQNKVRELISDNQYRLIVSVNDLRRKNEKRANRLLNNAFEELVAFQRALKDFVASIDATYAKQYEEFYIGLEGSFGSKHVSPRTLTSCFLSCVVCVEGIVTKCSLVRPKVVRSVHYCPATKKTIERRYSDLTTLVAFPSSSVYPTKDEENNPLETEYGLSVYKDHQTITIQEMPEKAPAGQLPRSVDVILDDDLVDKVKPGDRIQVVGTYRCLPGKKGCYTSGTFRTVLIACNVKQMSKDIQPAFSADDIAKIKKFSKTRSKDVFEQLARSLAPSIHGHDYVKKAILCLLLGGVERELENGSHIRGDINILLIGDPSVAKSQLLRYVLCTAPRAIPTTGRGSSGVGLTAAVTTDQETGERRLEAGAMVLADRGVVCIDEFDKMSDMDRTAIHEVMEQGRVTIAKAGIHARLNARCSVLAAANPVYGRYDQYKTPMENIGLQDSLLSRFDLLFIMLDQMDPEQDREISDHVLRMHQYRAPGEQDGDALPLGSSVDILATDDPDFTQDDQQDTRIYEKHDSLLHGTKKKKEKMVSAAFMKKYIHVAKIIKPTLTQESAAYIAEEYSRLRSQDSMSSDTARTSPVTARTLETLIRLATAHAKARMSKTVDLQDAEEAVELVQYAYFKKVLEKEKKRKKASEDESDLEDEEEKSQEDTEQKRKRRKTHAKDGESYDPYDFSEAETQMPQVHTPKTDDSQEKTDDSQETQDSQKVELSEPRLKAFKAALLEVFQEAHEQSVGMLHLTESINRNREEPFSSEEIQACLSRMQDDNQVMVSEGIVFLI

How the values were obtained:
[1] = target: T1, Mcm4 (subunit of the Mcm DNA helicase complex) (mouse (endogenous in C2C12)); assay: co-IP; lysates of C2C12 cells transfected with macroH2A-GFP vectors and synchronized in G1/S; endogenous Mcm4 precipitated with anti-Mcm4 on Protein G agarose beads, 2 h; anti-MIN antibody as negative control
[2] = target: macroH2A2-GFP (UniProt Q8CCK0); assay: co-IP; lysates of C2C12 cells transfected with macroH2A-GFP vectors, synchronized in G1/early S by double thymidine arrest, 48 h after transfection; lysis buffer 20 mM Tris-HCl pH 8, 150 mM NaCl, 0.5 mM EDTA, 0.5% NP-40; GFP-binder (nanobody) beads, 4°C, 90 min; western blot for GFP and Mcm …
[3] = target: macroH2A1.2-GFP (UniProt Q9QZQ8); assay: as above
[4] = target: macroH2A1.2 (endogenous) (mouse (endogenous in C2C12 and MEF)) (UniProt Q9QZQ8); assay: proximity ligation; duolink PLA in situ in mouse embryonic fibroblasts (MEF); high-content screening microscopy (Operetta), nuclear spots counted with Harmony
[5] = target: macroH2A2-V192F (GFP-tagged) (UniProt Q8CCK0); assay: co-IP; lysates of C2C12 cells transfected with macroH2A-GFP vectors, synchronized in G1/early S by double thymidine arrest, 48 h after transfection; lysis buffer 20 mM Tris-HCl pH 8, 150 mM NaCl, 0.5 mM EDTA, 0.5% NP-40; GFP-binder (nanobody) beads, 4°C, 90 min; western blot for GFP and Mcm …

Molecule	binding [1]	binding [2]	binding [3]	binding [4]	binding [5]
macroH2A1.2-GFP (from UniProt Q9QZQ8-1 1-372)	binds				
macroH2A2-GFP (from UniProt Q8CCK0 1-372)	no binding				
Mcm2 (subunit of the Mcm DNA helicase complex) (from UniProt P97310 1-904)		no binding	binds	binds	
B1		no binding	binds		
B2		no binding	binds		
B3		no binding	binds		binds

From article PMC11514477
